# Measured values taken from PubChem BioAssay AID1159614 (National Center for Advancing Translational Sciences (NCATS), 2016).
# The campaign covered roughly 45,000 compounds. About 65 (0.1%) were called active. The call rests on the fitted dose curve; in most records, active means well fitted activation curve with a large enough effect; inconclusive means small, poorly fitted or top-dose-only effect; inactive means no such curve, though single readings can be large or run the other way. This is one part of the list.
# Target: Galactocerebrosidase (Homo sapiens) (UniProt P54803)
# Sequence of UniProt P54803 (P54803 whole entry, looked up): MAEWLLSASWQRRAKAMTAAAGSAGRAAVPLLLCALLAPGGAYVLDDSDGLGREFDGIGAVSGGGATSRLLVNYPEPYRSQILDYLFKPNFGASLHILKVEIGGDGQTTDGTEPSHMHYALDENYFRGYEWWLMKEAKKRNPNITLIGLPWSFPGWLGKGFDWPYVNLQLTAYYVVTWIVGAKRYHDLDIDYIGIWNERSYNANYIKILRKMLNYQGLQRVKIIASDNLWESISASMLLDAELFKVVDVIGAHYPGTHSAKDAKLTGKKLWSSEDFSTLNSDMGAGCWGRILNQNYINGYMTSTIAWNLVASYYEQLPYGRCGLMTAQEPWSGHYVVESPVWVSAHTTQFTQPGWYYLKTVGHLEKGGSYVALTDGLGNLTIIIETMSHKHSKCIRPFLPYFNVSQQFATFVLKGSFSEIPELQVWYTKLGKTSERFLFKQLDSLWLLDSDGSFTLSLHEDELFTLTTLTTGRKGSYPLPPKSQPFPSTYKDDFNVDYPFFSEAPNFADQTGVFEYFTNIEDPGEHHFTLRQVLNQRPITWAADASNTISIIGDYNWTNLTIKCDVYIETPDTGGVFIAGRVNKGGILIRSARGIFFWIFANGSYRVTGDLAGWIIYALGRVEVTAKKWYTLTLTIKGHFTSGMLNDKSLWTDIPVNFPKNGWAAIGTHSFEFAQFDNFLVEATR
# Test: A Novel Cell-Based Assay to Identify Small Molecules for B -Galactocerebrosidase; further: 0% is about no effect; nearly all actives have a fitted effect of over 65% in size
# Conditions: 145M-Twi-hGALC-G270D cells (Twitcher mouse brain line with human GALC G270D), HMU-beta-Gal fluorescence, 48 h; series mostly up to 57.5 µM; activation: at the top concentration
# Procedure, shortened: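 Brain-derived Twitcher mouse 145M-Twi cells stably expressing human GALC-G270D or wild-type GALC, treated live, then residual GALC activity read by fluorescence of HMU-b-Gal substrate (0.1 mM final) in citrate-phosphate buffer pH 5.2 with sodium taurocholate. Signal increase indicates enhancement.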
row,SMILES,activation
1,CCOc1ccc(NC(=O)CSc2nnc3scc(-c4ccccc4)n23)cc1,inactive: -1.47%
2,CCOC(=O)c1sc2ncn(CC(=O)Nc3ccc(F)cc3F)c(=O)c2c1C,inactive: 5%
3,COC(=O)c1c(NC(=O)c2ccc(Cl)c(Cl)c2)sc2c1CCCC2,inactive: -10.2%
4,O=C(Nc1ccccc1F)c1cnc(N2CCCCC2)c2ccccc12,inactive: -0.968%
5,O=C1CC[C@@H](C(=O)O)N1,inactive: -21.9%
6,CCc1ccccc1NC(=O)c1cc(-c2ccc(Cl)s2)nc2ccccc12,inactive: -9.67%
7,Cc1oc(-c2ccccc2F)nc1Cn1c(SCc2cccc(C(F)(F)F)c2)nc2ccncc21,inactive: -21%
8,COc1ccc(OC)c(CNC(=O)CCCn2c(=O)c3cccn3c3cccnc32)c1,inactive: -10.4%
9,CCOc1ccccc1NC(=O)Cn1c(=O)n(Cc2ccc(OC)cc2)c(=O)c2oc3ccccc3c21,inactive: -17.7%
10,Nc1cc(C(F)(F)F)ccc1S,inactive: -14.7%
11,Cc1cccc(-n2c(C)cc(C(=O)C(=O)Nc3nncs3)c2C)c1,inactive: -11.4%
12,Cc1ccc(O)c(NC(=O)CCS(=O)(=O)c2nc(-c3cccs3)cc(C(F)(F)F)n2)c1,inactive: -19.9%
13,Cc1ccc(C(C)C)c(OCC(=O)Nc2cc(-c3nc4ccccc4[nH]3)ccc2C)c1,inactive: -16.5%
14,Cc1cccc(-n2cnc3cc(C(=O)NCc4ccccc4Cl)ccc32)c1,inactive: -13.1%
15,COc1ccc(N(CC(=O)Nc2cc(OC)cc(OC)c2)S(=O)(=O)c2c(C)noc2C)cc1,inactive: 17.7%
16,COc1ccccc1-c1nnc(C2CCN(C(=O)c3ccccc3C)CC2)o1,inactive: -6.11%
17,Cc1cc2c(cc1S(=O)(=O)Nc1ccc(C(C)C)cc1)OCCN2C,inactive: -3.26%
18,CCOC(=O)CSc1nc2ccc(NC(=O)c3ccc(Cl)cc3)cc2s1,inactive: 3.51%
19,COC(=O)c1ccc(NC(=O)C2CCN(c3ncnc4c3nc3n4CCCCC3)CC2)cc1,inactive: -0.541%
20,COc1cccc(-c2nc(CS(=O)(=O)CC(=O)Nc3cccc(C(C)=O)c3)c(C)o2)c1,inactive: -18.8%
21,COc1cc(CN(C(=O)c2ccc(OC(C)C)cc2)c2ccccn2)cc(OC)c1OC,inactive: -37.4%

row,SMILES,activation
1,COc1ccc(CCNc2ncnc3c2c(-c2ccccc2)cn3-c2ccc(Cl)cc2)cc1OC,inactive: 9.43%
2,CCCCc1ccc(C(=O)Nc2ccc3nc(N4CCN(CC)CC4)cc(C)c3c2)cc1,inactive: -17.1%
3,COc1ccc(C)cc1NC(=O)c1cc(S(=O)(=O)N2CCC(C)CC2)ccc1F,inactive: -8.06%
4,CCOC(=O)c1ccccc1NC(=O)CSc1nnc(CC)n2c1cc1occc12,inactive: -11.6%
5,Fc1ccc(-c2cc3ncc4c(n3n2)-c2cc(Cl)ccc2OC4)cc1,inactive: -15.3%
6,O=C(O)CNC(=O)c1ccccc1,inactive: -6.41%
7,Cc1cc(Nc2nc3ccccc3c3nnc(C)n23)ccc1Br,inactive: -2.29%
8,Cc1cc(C)cc(NC(=O)CSc2c(C(C)C)cnc3c2c(=O)n(C)c(=O)n3C)c1,inactive: -14.8%
9,Cc1cc(C)cc(Nc2cc(C(=O)NC3CCCCC3)c3ccccc3n2)c1,inactive: 22.9%
10,Cc1ccc(CNC(=O)CSc2c(C)cnc3c2c(=O)n(C)c(=O)n3C)cc1,inactive: -7.06%
11,CCOC(=O)N1CCc2c(sc3c2c(=O)n(-c2ccc(CC)cc2)c(=O)n3Cc2cccc(Cl)c2)C1,inactive: -9.88%
12,CCC1CN(C(=O)N2CCC(C(=O)NCCc3ccc(OC)c(OC)c3)CC2)c2ccccc2O1 (configuration not stated),inactive: -15.4%
13,Cc1ccc(C)c(N2CCN(C(=O)C3CCC(CNS(=O)(=O)c4cccs4)CC3)CC2)c1 (configuration not stated),inactive: -11.4%
14,CCc1cccc(NC(=O)Cn2c(=O)n(CCCCCC(=O)NCc3ccc(F)cc3)c(=O)c3sccc32)c1,inactive: 1.9%
15,Cc1ccc(NC(=O)CN2C(=O)C(c3ccc(F)cc3)=NC23CCCCCC3)c(C)c1,inactive: -7.34%
16,CCCCOc1ccc(C2C(=O)N(C3CCCCC3)CC(=O)N2C2CCCCC2)cc1 (configuration not stated),inactive: -11.8%
17,Cc1ccc(NC(=O)C2CCN(S(=O)(=O)c3cccc4nsnc34)CC2)cc1,inactive: -15.3%
18,CCn1cc(C(=O)OCC(=O)Nc2cc(Cl)ccc2C)c(=O)c2ccc(C)nc21,inactive: -16.1%
19,Cc1ccc(C)c(N2CCN(C(=O)c3cc4cc5ccc(C)cc5nc4o3)CC2)c1,inactive: -8.15%
20,CC1CCN(S(=O)(=O)c2ccc3nc(NCc4ccc(N(C)C)cc4)ccc3c2)CC1,inactive: -8.19%
21,CCCCCCc1c(C)c2c(cc(C)c3c(C)coc32)oc1=O,inactive: -24.1%

row,SMILES,activation
1,Cc1ccc(C)c(NC(=O)Cn2ncc3c(C)n(Cc4ccc(F)cc4)c(C)c3c2=O)c1,inactive: -9.82%
2,COc1ccc(C2C=C(c3ccccc3)Nc3nc(NC(C)=O)nn32)cc1 (configuration not stated),inactive: -4.44%
3,CCn1nc(C)c2c(-c3ccccc3)cc(=O)n(C(C)C(=O)Nc3ccc(OC)c(OC)c3)c21 (configuration not stated),inactive: -16.9%
4,Cc1cccc(NC(=O)Nc2cccs2)c1C,inactive: 2.36%
5,CO[C@@]1(NC(=O)C(C(=O)O)c2ccc(O)cc2)C(=O)N2C(C(=O)O)=C(CSc3nnnn3C)CO[C@@H]21 (some centres not stated),inactive: -10.7%
6,CCOC(=O)c1ccccc1NC(=O)CN(c1ccccc1)S(=O)(=O)c1ccc(OCC)cc1,inactive: -12.2%
7,COc1ccc(-c2cc(C(F)(F)F)n3nc(C)c(-c4ccccc4)c3n2)cc1OC,inactive: -10.7%
8,O=C(CCc1cn(Cc2ccc(F)cc2)c2ccccc12)NC1CCCCC1,inactive: 0.718%
9,N#C/C(=C\c1ccc(O)cc1)C(=O)NCC1CCCO1 (configuration not stated),inactive: 12.2%
10,CC1=C(c2ccc(C)c(C)c2)S(=O)(=O)N(Cc2ccc(C(=O)NCc3ccccc3F)cc2)C1=O,inactive: -25.4%
11,Cc1cc(C)cc(NC(=O)Cn2nnc(-c3ccccc3F)n2)c1,inactive: -8.34%
12,CCOC(=O)c1c(Nc2ccc(C)c(C)c2)nnc(-c2ccccc2)c1-c1ccccc1,inactive: -44%
13,Cc1ccc(C)c(OCC(=O)Nc2sc3c(c2C#N)CCCC3)c1C,inactive: -3.61%
14,CCC1CCCCN1CCCNC(=O)c1ccc2c(c1)c(C)c(C)n2CC (configuration not stated),inactive: 2.78%
15,CCCC(=O)Nc1cc2nn(-c3ccc(OC)cc3)nc2cc1C,inactive: -0.448%
16,O=C(NCCc1ccccc1)c1c[nH]c2ccc(S(=O)(=O)Nc3ccc(F)cc3F)cc2c1=O,inactive: -16.7%
17,CCOc1ccc(NC(=O)NCCN2CCN(c3cc(Cl)ccc3C)CC2)cc1,inactive: -21.6%
18,CCc1ccc(C(=O)c2cn(CC(=O)NCCc3ccccc3)c3nc(C)ccc3c2=O)cc1,inactive: -11%
19,COc1cccc(NC(=O)C2CCCN(c3ncnc4onc(-c5ccc(F)cc5)c34)C2)c1 (configuration not stated),inactive: -10.3%
20,Cc1cc(C)c(NC(=O)Cn2c(=O)n(CCC(C)C)c(=O)c3cccnc32)c(C)c1,inactive: -11.8%
